The whole screen tested about 110,000 compounds, of which about 230 (0.21%) showed an effect of 50% or more. The list shows a part of the results.
Biological target: DPAP1 (Plasmodium falciparum, UniProt Q8IIJ9)
Assay: primary screen, percent inhibition; read by cleavage of a fluorogenic dipeptide substrate; higher = more effect of the substance
Parameters: species or system P. falciparum D10 trophozoite lysates; single well
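Also: 30 min substrate incubation versus DMSO and 10 µM JCP410 controls.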

DPAP1, sequence (Q8IIJ9 whole entry, looked up): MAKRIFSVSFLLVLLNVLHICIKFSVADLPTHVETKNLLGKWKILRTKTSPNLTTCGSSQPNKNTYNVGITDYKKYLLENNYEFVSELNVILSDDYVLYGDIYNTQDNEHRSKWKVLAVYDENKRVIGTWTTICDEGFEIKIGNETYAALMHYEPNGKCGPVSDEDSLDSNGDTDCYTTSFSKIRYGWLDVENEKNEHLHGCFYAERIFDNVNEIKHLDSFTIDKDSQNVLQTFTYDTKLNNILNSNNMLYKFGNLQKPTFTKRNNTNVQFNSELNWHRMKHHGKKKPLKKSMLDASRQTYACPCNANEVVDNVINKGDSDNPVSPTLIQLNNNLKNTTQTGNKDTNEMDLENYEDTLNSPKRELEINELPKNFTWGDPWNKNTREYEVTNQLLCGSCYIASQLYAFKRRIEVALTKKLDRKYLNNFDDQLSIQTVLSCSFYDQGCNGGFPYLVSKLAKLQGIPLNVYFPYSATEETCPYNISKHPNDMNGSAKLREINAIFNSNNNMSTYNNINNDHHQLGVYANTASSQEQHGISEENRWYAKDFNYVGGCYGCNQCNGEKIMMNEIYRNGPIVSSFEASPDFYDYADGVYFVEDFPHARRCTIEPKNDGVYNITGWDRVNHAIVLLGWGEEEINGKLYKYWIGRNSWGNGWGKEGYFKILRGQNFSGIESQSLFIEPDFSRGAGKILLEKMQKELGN

| Structure (SMILES) | % Inhibition @ 10 uM [%] |
| --- | --- |
| CN1C(=O)C(C(=O)NC(C)(C)C)C2CC1(C)Oc1ccccc12 (stereo not drawn) | 0.147 |
| CC(=O)N1CCc2[nH]c3ccc(C)cc3c2C1 | 1.02 |
| CSC1=NSC2=NC(=O)/C(=C\c3cccc4ccccc34)C(=N)N12 | -3.39 |
| CCN1CCN(C(CNC(=O)C(=O)NCCOC)c2cccnc2)CC1 (stereo not drawn) | -5.37 |
| CC(NCc1c(C(=O)O)n(C)c2ccccc12)C12CC3CC(CC(C3)C1)C2 (stereo not drawn) | 5.09 |
| CCC1(C)CC(CCN2C(=O)c3ccccc3C2=O)(c2ccc(C)cc2)CCO1 (stereo not drawn) | -0.169 |
| O=C(CSCc1ccc(Br)cc1)NCCSc1ccc(Cl)cc1 | 3.05 |
| CC1OC(Nc2ccc(OC(F)(F)Cl)cc2)C(O)C(O)C1O (stereo not drawn) | 5.15 |
| O=S(=O)(Nc1ccccc1Br)c1ccc(Br)cc1 | -4.61 |
| CCOc1ccc(Nc2nc(C)c(C(C)=O)s2)cc1 | -5.31 |
| COc1ccc(OC)c(C2CC(c3cccc(Br)c3)Nc3nnnn32)c1 (stereo not drawn) | 0.0842 |
| CC1CC(C)CN(C(=O)CCCn2c(=O)c3cccn3c3cccnc32)C1 (stereo not drawn) | 2.03 |
| O=C(CCCN1C(=O)CSc2ncccc21)NCc1ccc2c(c1)OCO2 | -0.637 |
| O=C(c1ccco1)N(CCN(Cc1ccccc1)C(=O)c1ccco1)Cc1ccccc1 | -1.06 |
| Cc1ccc2c(CN3CCCCCC3)cc(=O)oc2c1 | 0.00706 |
| CCc1ccc(CNc2ncnc3onc(C)c23)cc1 | -4.4 |
| CC1(C)CC(=O)C2=C(C1)OC(N)=C(C#N)C2c1cncc(-c2ccc(F)cc2)c1 (stereo not drawn) | -2.64 |
| Cc1cc(NCCc2ccc(F)cc2)nc2cc(Cl)ccc12 | 2.91 |
| COc1cccc(/C=N/N=C(/c2ccc(Cl)cc2)C23CN4CN(CN(C4)C2)C3)c1 | -2.39 |
| CCOc1cccc(C2C(C(=O)OC)=CN(C(C)C)C=C2C(=O)OC)c1 | -6.93 |
| CCOC(=O)N1CCC(NC(=O)C2CCCCN2S(=O)(=O)c2ccc(F)cc2)CC1 (stereo not drawn) | -7.44 |
| O=C(O)CCCCn1c(SCC(=O)NCCC2=CCCCC2)nc2ccsc2c1=O | -6.28 |
| CCOC(=O)C1CCCN(Cc2cccs2)C1 (stereo not drawn) | -5.41 |
| CCc1nc2ccc(C(=O)NCc3ccc(C)o3)cc2nc1CC | 1.11 |
| CC(=O)c1ccc(NS(=O)(=O)c2cc(C(=O)Nc3ccc(Br)cc3)ccc2C)cc1 | 5.61 |

| Structure (SMILES) | % Inhibition @ 10 uM [%] |
| --- | --- |
| CCc1nonc1NC(=O)c1cc(OC)c(OC)c(OC)c1 | 0.00706 |
| COC(=O)C1=C(C)N(CC(C)C)C(=O)/C1=C\c1ccc(C(=O)OC)cc1 | -7.18 |
| O=Cc1cccn1-c1nnc(N2CCCC2=O)s1 | -1.6 |
| Cc1oc(-c2cccs2)nc1CSc1nc2ccncc2[nH]1 | 4.22 |
| O=S(=O)(NC1CCCCC1)c1ccc(Oc2ccc(S(=O)(=O)NC3CCCCC3)cc2)cc1 | -0.0369 |
| COc1cc2c(cc1C)-c1nc(NC(C)=O)sc1CC2 | 7.49 |
| CC1CCCCN1C(=O)c1cc(Cl)ccc1NC(=O)c1ccco1 (stereo not drawn) | -1.46 |
| OC(CNCc1ccccc1)COc1cccc2ccccc12 (stereo not drawn) | 2.75 |
| Cc1nc2ccccc2n1Cc1ccc(Br)cc1 | -2.35 |
| CCN1CCN(C(=O)C2CCCN(C(=O)c3cnn(-c4ccccc4)c3-n3cccc3)C2)CC1 (stereo not drawn) | -3.79 |
| COc1ccc(C)cc1N(CC(=O)Nc1ccc(S(=O)(=O)N2CCOCC2)cc1)S(C)(=O)=O | 0.163 |
| CCCc1ccc(OCC(O)CN2CCN(C)CC2)cc1 (stereo not drawn) | -0.424 |
| Cc1cc(Oc2nc3ccccn3c(=O)c2/C=C(\C#N)C(=O)NC2CCS(=O)(=O)C2)ccc1Cl (stereo not drawn) | 1.19 |
| Cn1nc(C(=O)NCCN2CCc3ccccc3C2)c2c1-c1ccccc1SC2 | 3.3 |
| O=C(CSc1nnc(-c2ccco2)o1)NCc1ccccc1 | -1.68 |
| CCc1ccccc1N(CC(=O)NCCc1ccccc1)S(C)(=O)=O | -2.66 |
| CSc1ncc(Cl)c(C(=O)Nc2sc3c(c2C(=O)NCCc2ccccc2)CCC3)n1 | -8.43 |
| O=C1N=C(N2CCOCC2)S/C1=C/c1c[nH]nc1-c1ccccc1 | -0.0626 |
| O=C(Nc1ccc(Cl)cc1)Nc1ccc(Cl)cc1Cl | 4.51 |
| CC1CCN(C(=O)c2cnn(-c3ccccc3)c2-n2cccc2)CC1 | -5.15 |
| COc1cc(/C=C2/NC(=O)N(Cc3ccccc3F)C2=O)ccc1OC(C)C | 0.528 |
| N#Cc1ccc(Cn2c(=O)oc3ccccc32)cc1 | -2.54 |
| Cc1ccccc1Cn1cc(NC(=O)c2cc(-c3ccco3)on2)cn1 | -7.15 |
| COc1ccc(C(=O)CC(=O)c2cc(Cl)ccc2O)cc1OC | 3.16 |
| O=C(C1=CCN(S(=O)(=O)c2ccc(F)cc2)CC1)N1CCOCC1 | 23.1 |

| Structure (SMILES) | % Inhibition @ 10 uM [%] |
| --- | --- |
| O=C1C(=O)N2C(=C1C(=O)N1CCOCC1)c1ccccc1CC21CCCC1 | 0.475 |
| Cc1cc(Br)cc(C)c1-c1cc(-c2ccccc2)[nH]n1 | -1.69 |
| CCN(CC)C(CNS(=O)(=O)c1ccc(Cl)cc1)c1ccccc1 (stereo not drawn) | 1.12 |
| CCOc1ccc(/C=C2\SC(=O)N(CC(=O)N3CCOCC3)C2=O)cc1OCC | 4.94 |
| CS(=O)(=O)N(CC(=O)Nc1cc(C(F)(F)F)ccc1Cl)C1CCCCC1 | 3.58 |
| N#Cc1cc2c(=O)n3ccccc3nc2n(CC2CCCO2)c1=O (stereo not drawn) | 1.12 |
| COCCCNC(=O)CSc1nc2ccc(Br)cc2c2nc3ccccc3n12 | 0.569 |
| C=CCNc1nc(OC)nc(OC)n1 | 2.13 |
| Cc1nc2ncnn2c(C)c1CCC(=O)N1CCCC1 | 7.61 |
| Cc1ccc2c(c1)c1nnc(S)nc1n2Cc1ccccc1 | 3.73 |
| NC(c1ccccc1)(c1ccc(Cl)cc1)c1ncc[nH]1 (stereo not drawn) | -7.09 |
| Cc1ccc(NC(=O)CSc2nc(N)cc(N)n2)cc1Cl | -5.13 |
| CN1CCN(C2CCC(c3ccccc3)CC2)CC1 (stereo not drawn) | -1.81 |
| CC(C)NC(=O)/C(=C/c1cn(S(=O)(=O)N(C)C)c2ccccc12)NC(=O)c1ccccc1 | -1.74 |
| CC(C)c1ccc(CN(C)C2CCN(C)CC2)cc1 | -1.77 |
| CSc1nc2ccsc2c(=O)n1Cc1ccccc1F | 6.5 |
| CCc1cc2c(cc(C(=O)NCc3ccccc3C)n2C)s1 | -4.85 |
| CCCN(CCC)CCNC(=O)c1cn(C)c(=O)c2ccccc12 | 1.91 |
| O=C(Cn1ncc2c1-c1ccccc1OC2)NCCc1ccsc1 | -2.42 |
| CCOC(=O)c1c(C)[nH]c(C)c1S(=O)(=O)NCCc1ccc(OC)c(OC)c1 | 0.708 |
| N#CC1=C(N)Oc2cc(O)c(Cl)cc2C1c1ccccc1Cl (stereo not drawn) | -6.18 |
| CSc1nc2sc3c(c2c2nnc(C)n12)CCC(C(C)(C)C)C3 (stereo not drawn) | -7.23 |
| c1ccc(-c2cn3c(n2)SCC3)cc1 | -3.98 |
| CCOC(=O)c1c(C)[nH]c(C)c1S(=O)(=O)NCc1cc(OC)c(OC)c(OC)c1 | 0.708 |
| Cc1cc(O)n2nc(Cc3ccccc3)c(-c3ccc(Cl)cc3)c2n1 | 1.72 |

| Structure (SMILES) | % Inhibition @ 10 uM [%] |
| --- | --- |
| CN1CCN(S(=O)(=O)c2ccc(-c3cc(C(F)(F)F)no3)s2)CC1 | 3.08 |
| O=C(O)c1ccccc1C(=O)Nc1ccc(-c2ccc([N+](=O)[O-])cc2)cc1 | -4.31 |
| COc1ccc(NC(=O)C2=C(C)NC(=O)NC2c2ccc(OC)c(OC)c2)cc1 (stereo not drawn) | 7.42 |
| O=C(Nc1ccc(Br)cc1)c1cc2nc(C(F)F)cc(C(F)F)n2n1 | -1.04 |
| Cc1ccc(OCC(=O)Nc2cccc(C(F)(F)F)c2)cc1C | 2.53 |
| Cc1c(C(=O)N2CCN(C)CC2)sc2ncnc(N3CCN(c4ccccn4)CC3)c12 | -2.87 |
| N#CCCN1CCN(C2=NC(=O)/C(=C\c3ccc(-c4ccc(Cl)cc4)o3)S2)CC1 | -2.8 |
| COc1cc(C(=O)Nc2ccc(Cl)cc2F)cc(OC)c1OC | 2.48 |
| COCCCn1c(=O)c2sccc2n2c(CCCC(=O)N3CCC(C(N)=O)CC3)nnc12 | -10.3 |
| CCN(c1ccccc1C)S(=O)(=O)c1ccc(C)cc1 | -7.78 |
| Cc1ccc2nc(-c3ccc(N4C(=O)CC(N5CCCC(C(N)=O)C5)C4=O)cc3)sc2c1 (stereo not drawn) | 6.17 |
| CCOc1cc(C(=O)Nc2cc(=O)n(C)c(=O)n2C)cc(OCC)c1OCC | 5.08 |
| CCc1[nH]nc2c1C1(CCN(C(C)=O)CC1)C(C#N)=C(N)O2 | 2.51 |
| CCOC(=O)c1c(-c2ccc(F)cc2)csc1NC(=O)c1c(-c2ccccc2)noc1C | 0.64 |
| CC1CCN(S(=O)(=O)c2ccc(C(=O)Nc3nc4c(s3)Cc3ccccc3-4)cc2)CC1 | -3.21 |
| COc1ncnc(-c2ccccc2)c1-c1ccccc1 | 7.39 |
| COc1ccc(C(=O)N2CCN(CCCc3ccccc3)CC2)cc1 | -3.87 |
| Cc1nc2scc(C)n2c(=O)c1S(=O)(=O)N1CCN(C)CC1 | 0.947 |
| CCCC(C)NS(=O)(=O)c1ccc(NC(C)=O)cc1 (stereo not drawn) | -4.65 |
| O=C(O)c1cc(NC(=O)c2cccc([N+](=O)[O-])c2)cc(C(=O)O)c1 | -5.36 |
| O=C(/N=C1/SC2CS(=O)(=O)CC2N1c1ccccc1)c1ccc(Br)cc1 (stereo not drawn) | -0.425 |
| COCC(=O)NC1CCN(Cc2ccccc2)CC1 | -3.77 |
| CCN(CC)S(=O)(=O)c1cccc(C(=O)Nc2ccc(C(=O)O)cc2)c1 | -1.74 |
| COc1cccc2c(C)nc(NC3=NCN(CCc4ccccc4)CN3)nc12 | 0.0539 |
